Earlier results in patent US11034725B2, “Compositions and methods for treating cardiovascular disease” (Genentech, Inc., priority 2016, dated 2021).

Target: PCSK9 (Homo sapiens, UniProt Q8NBP7)
Settings: U.S. Pat. No. 9,266,961; read-out: antibody33/PCSK9 dissociation constant (Kd); cited from earlier work

Sequence of PCSK9 (Q8NBP7 153-692): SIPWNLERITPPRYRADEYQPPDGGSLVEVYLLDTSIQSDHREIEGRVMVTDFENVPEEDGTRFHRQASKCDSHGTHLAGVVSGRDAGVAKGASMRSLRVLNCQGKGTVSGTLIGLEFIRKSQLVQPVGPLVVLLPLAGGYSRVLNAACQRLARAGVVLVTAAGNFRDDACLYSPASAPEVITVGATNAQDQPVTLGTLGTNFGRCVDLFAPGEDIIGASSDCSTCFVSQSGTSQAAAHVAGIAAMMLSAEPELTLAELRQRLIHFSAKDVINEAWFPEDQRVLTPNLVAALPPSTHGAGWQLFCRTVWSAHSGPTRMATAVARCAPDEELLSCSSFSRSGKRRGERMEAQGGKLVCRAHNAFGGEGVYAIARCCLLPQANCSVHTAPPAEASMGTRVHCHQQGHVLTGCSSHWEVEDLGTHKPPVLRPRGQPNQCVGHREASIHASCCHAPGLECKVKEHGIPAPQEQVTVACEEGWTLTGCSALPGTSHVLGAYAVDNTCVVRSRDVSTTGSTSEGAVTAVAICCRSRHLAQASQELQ

B1: Ab33: anti-PCSK9 antibody, YW508.20.33b (Ab33), disclosed in U.S. Pat. No. 9,266,961 (antibody)
heavy: EVQLVESGGGLVQPGGSLRLSCAASGFTFSSTAIHWVRQAPGKGLEWVARISPANGNTNYADSVKGRFTISADTSKNTAYLQMNSLRAEDTAVYYCARWIGSRELYIMDYWGQGTLVTVSS[human IgG1 constant region not shown]
light: DIQMTQSPSSLSASVGDRVTITCRASQDVSTAVAWYQQKPGKAPKLLIYSASFLYSGVPSRFSGSGSGTDFTLTISSLQPEDFATYYCQQAYPALHTFGQGTKVEIKRTVAAPSVFIFPPSDEQLKSGTASVVCLLNNFYPREAKVQWKVDNALQSGNSQESVTEQDSKDSTYSLSSTLTLSKADYEKHKVYACEVTHQGLSSPVTKSFNRGEC
- Kd: 0.4 nM
